Numbering of substitutions follows the chain as printed.
B1: hz16E5-1.2: humanized anti-CD47 antibody, heavy chain SEQ ID NO: 165, light chain SEQ ID NO: 167 (antibody)
heavy: QVQLVQSGAEVKKPGASVKVSCKASGYTFTNYGMNWVRQAPGQGLKWMGWINTNTGEPTYAQELQGRVTMTLDTSTRTAYMELRSLRSDDTAVYYCARFSHLRGPMDYWGQGTLVTVSSASTKGPSVFPLAPCSRSTSESTAALGCLVKDYFPEPVTVSWNSGALTSGVHTFPAVLQSSGLYSLSSVVTVPSSSLGTKTYTCNVDHKPSNTKVDKRV[omitted - human IgG4 Fc with S228P (EU numbers)]
light: DIQMTQSPSSLSASVGDRVTITCRSSQSLVHSNGYTYLHWYQQKPGKAPKLLIYKVSNRFSGVPSRFSGSGSGTDFTLTISSLQPEDFATYYCSQSTHVPPTFGQGTKLEIKRTVAAPSVFIFPPSDEQLKSGTASVVCLLNNFYPREAKVQWKVDNALQSGNSQESVTEQDSKDSTYSLSSTLTLSKADYEKHKVYACEVTHQGLSSPVTKSFNRGEC
modifications: heavy chain; light chain
B2: hz3F10-5.1: humanized anti-CD47 antibody, heavy chain SEQ ID NO: 125, light chain SEQ ID NO: 127 (antibody)
heavy: QVQLVQSGAEVKKPGSSVKVSCKASGYTFSRYWIEWVRQAPGQGLEWMGEFIPGSDTTNYAQKFQGRVTITADISTSTAYMELSSLRSEDTAVYYCARGGLRRMDYWGQGTLVTVSSASTKGPSVFPLAPCSRSTSESTAALGCLVKDYFPEPVTVSWNSGALTSGVHTFPAVLQSSGLYSLSSVVTVPSSSLGTKTYTCNVDHKPSNTKVDKRV[omitted - human IgG4 Fc with S228P (EU numbers)]
light: DIQMTQSPSSLSASVGDRVTITCRASSSVSSTYLHWYQQKPGKAPKLWIYTTSTLASGVPSRFSGSGSGTSYTLTISSLQPEDFATYYCQQFSDSTWTFGQGTKLEIKRTVAAPSVFIFPPSDEQLKSGTASVVCLLNNFYPREAKVQWKVDNALQSGNSQESVTEQDSKDSTYSLSSTLTLSKADYEKHKVYACEVTHQGLSSPVTKSFNRGEC
modifications: heavy chain; light chain
B3: hz16E5-3.2: humanized anti-CD47 antibody, heavy chain SEQ ID NO: 169, light chain SEQ ID NO: 171 (antibody)
heavy: B1 heavy
light: B1 light with I2A
modifications: heavy chain; light chain
B4: hz16E5-1.3: humanized anti-CD47 antibody, heavy chain SEQ ID NO: 161, light chain SEQ ID NO: 163 (antibody)
heavy: B1 heavy with A97T
light: B1 light
modifications: heavy chain; light chain
B5: hz3F10-1.2: humanized anti-CD47 antibody, heavy chain SEQ ID NO: 133, light chain SEQ ID NO: 135 (antibody)
heavy: B2 heavy with D73E, S77N
light: B2 light with W48L, S71D, Y72F
modifications: heavy chain; light chain
B6: hz16E5-3.3: humanized anti-CD47 antibody, heavy chain SEQ ID NO: 177, light chain SEQ ID NO: 179 (antibody)
heavy: B1 heavy with A97T
light: B1 light with I2A
modifications: heavy chain; light chain
B7: hz3F10-2.2: humanized anti-CD47 antibody, heavy chain SEQ ID NO: 137, light chain SEQ ID NO: 139 (antibody)
heavy: B2 heavy with D73E, S77N
light: B2 light with W48L, S71D, Y72F, D94E
modifications: heavy chain; light chain
B8: hz3F10-3.2: humanized anti-CD47 antibody, heavy chain SEQ ID NO: 141, light chain SEQ ID NO: 143 (antibody)
heavy: B2 heavy with D73E, S77N
light: B2 light with W48L
modifications: heavy chain; light chain
B9: hz3F10-4.2: humanized anti-CD47 antibody, heavy chain SEQ ID NO: 145, light chain SEQ ID NO: 147 (antibody)
heavy: B2 heavy with D73E, S77N
light: B2 light with W48L, D94E
modifications: heavy chain; light chain

System: HL60 cells
Experiment: Promotion of macrophage phagocytosis of tumor cells (flow cytometry)
Type: cell-based, human
Settings: 1 μg/mL antibody, CFSE-labeled HL60 cells, human macrophages
Procedure: The ability of the anti-CD47 antibodies to promote the phagocytosis of tumor cells by macrophages having SIRPα on the cell surface was determined based on flow cytometry.
Monocytes were isolated from human peripheral blood mononuclear cells (PBMC, Sailybio, Cat. No. 190056) using a monocyte isolation kit ([…], Cat. No. 19058), plated into a 24-well plate (Greiner bio-one, Cat. No. 662-160) at […] cells per well, and induced under 100 ng/mL stimulating factor M-CSF (R&D Systems, Cat. No. 216-MC-010) for 7 days to form macrophages. 1×10^6 target cells HL60 (Shanghai Institute of Biochemistry and Cell Biology, Chinese Academy of Sciences, Cat. No. TCHu23) were suspended in […] CFSE (BD Biosciences, Cat. No. 565082) fluorescent dye (diluted with a PBS buffer to the desired concentration), incubated in a water bath at 37° C. in the dark for 15 min, and washed with a PBS buffer to prepare CFSE-labeled HL60 cells, which were then incubated with each of 10 μg/mL and 1 μg/mL anti-CD47 antibodies (see Table 3 for chimenic antibodies, and see Table 4 for humanized antibodies) in an incubator at 37° C. with 5% CO2 for 1-2 h. The HL60 cells after the incubation were washed three times with a PBS buffer and added to the macrophages. The cells were incubated in an incubator at 37° C. with 5% CO2 for 2-4 h. After the cells were washed three times with a PBS buffer, a mixture of 1260 μL of PBS, 20 μL of anti-APC-CD14 (APC MouseAnti-Human CD14, BD Biosciences, Cat. No. 555399), and 20 μL of PE-CD11b (PE Mouse Anti-Human CD11b/1Mac-1, BD Biosciences, Cat. No. 555388) antibody was added to each well. The cells were incubated at 4° C. in the dark for 30 min, washed three times with a PBS buffer, and digested with trypsin (Gibco, Cat. No. 12604-013). The rate of phagocytosis (%) by the macrophages was determined using a flow cytometer (BD Biosciences, model: C6).

Molecule	rate of phagocytosis [%]
B1	5.1
B2	50.45
B3	3.02
B4	3.03
B5	55.52
B6	11.62
B7	44.19
B8	47.04
B9	46.24

Same assay, conditions: 10 μg/mL antibody, CFSE-labeled HL60 cells, human macrophages

Molecule	rate of phagocytosis [%]
B1	17.83
B2	58.46
B3	2.03
B4	4.33
B5	38.86
B6	4.7
B7	34.72
B8	37.09
B9	31.67

System: not listed separately
Experiment: Thermostability assay based on Nano DSF (Prometheus NT.48)
Type: physicochemical
Settings: not given
Procedure: The high-throughput protein stability analyzer Prometheus NT.48 is an instrument for acquiring various types of data such as protein molecular structure stability, aggregation stability, and colloid dispersion stability. The melting temperatures (Tm) and the aggregation temperatures (Tagg) of the anti-CD47 chimeric antibodies and the anti-CD47 humanized antibodies were determined using this instrument.

Molecule	Tagg (aggregation temperature) [°C]	Tm (melting temperature) [°C]
B1	61.90	69.54
B2	62.12	68.05
B3	61.44	69.10
B4	73.77	68.90
B5	61.92	68.71
B6	73.81	68.72
B7	62.40	68.92
B8	61.80	68.30
B9	61.13	68.48
